# Assay results published in the supplement of paper PMC8728848.
# The list shows a part of the results.
# B1: HML-Native (Hypnea musciformis), P84871 (protein)
# chain: QKFCTLDIAPVCCQIVIGGGMYTAGNACMCEGFVSGVGRCENPKECPCTREAQIPSCCSSRWGLVSVTGKCACDCLGGTVAFPEPCPSPY
# Assays:
# Experiment in all cases: glycan array binding signal (z-score within array); higher = stronger binding
# Conditions in all cases: glycan notation: IUPAC condensed, linker removed
# Neu5Ac(a2-3)Gal = biological target: Neu5Ac(a2-3)Gal
# How it was run: (§1)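 Arrays were curated from the Consortium for Functional Glycomics database, 3228 in total, and kept only where the protein sequence was available. Binding is expressed as a within-array Z-score. This score was averaged across arrays of the same protein sequence at different concentrations or buffers and across linkers, and negative values can be read as non-binding.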
# [1] = biological target: Neu5Ac(a2-3)Gal(b1-3)GalNAc
# How it was run: as §1
# [2] = biological target: Neu5Ac(a2-3)Gal(b1-3)GalNAc(b1-3)Gal(a1-4)Gal(b1-4)Glc
# How it was run: as §1
# [3] = biological target: Neu5Ac(a2-3)Gal(b1-3)GalNAc(b1-4)[Neu5Ac(a2-3)]Gal(b1-4)Glc
# How it was run: as §1
# [4] = biological target: Neu5Ac(a2-3)Gal(b1-3)GalNAc(b1-4)[Neu5Ac(a2-8)Neu5Ac(a2-3)]Gal(b1-4)Glc
# How it was run: as §1
# [5] = biological target: Neu5Ac(a2-3)Gal(b1-3)GalNAc6S
# How it was run: as §1
# [6] = biological target: Neu5Ac(a2-3)Gal(b1-3)GlcNAc
# How it was run: as §1
# [7] = biological target: Neu5Ac(a2-3)Gal(b1-3)GlcNAc(b1-2)Man
# How it was run: as §1
# [8] = biological target: Neu5Ac(a2-3)Gal(b1-3)GlcNAc(b1-2)Man(a1-3)[GlcNAc(b1-4)][Neu5Ac(a2-3)Gal(b1-3)GlcNAc(b1-2)Man(a1-6)]Man(b1-4)GlcNAc(b1-4)GlcNAc
# How it was run: as §1
# [9] = biological target: Neu5Ac(a2-3)Gal(b1-3)GlcNAc(b1-2)Man(a1-3)[Neu5Ac(a2-3)Gal(b1-3)GlcNAc(b1-2)Man(a1-6)]Man(b1-4)GlcNAc(b1-4)GlcNAc
# How it was run: as §1
# [10] = biological target: Neu5Ac(a2-3)Gal(b1-3)GlcNAc(b1-2)[Neu5Ac(a2-3)Gal(b1-3)GlcNAc(b1-4)]Man(a1-6)[Neu5Ac(a2-3)Gal(b1-3)GlcNAc(b1-2)Man(a1-3)]Man(b1-4)GlcNAc(b1-4)GlcNAc
# How it was run: as §1
# [11] = biological target: Neu5Ac(a2-3)Gal(b1-3)GlcNAc(b1-3)Gal(b1-3)GlcNAc
# How it was run: as §1
# [12] = biological target: Neu5Ac(a2-3)Gal(b1-3)GlcNAc(b1-3)Gal(b1-4)GlcNAc
# How it was run: as §1
# [13] = biological target: Neu5Ac(a2-3)Gal(b1-3)GlcNAc(b1-3)GalNAc
# How it was run: as §1
# [14] = biological target: Neu5Ac(a2-3)Gal(b1-3)GlcNAc(b1-4)Gal(b1-4)Glc
# How it was run: as §1
# [15] = biological target: Neu5Ac(a2-3)Gal(b1-3)GlcNAc(b1-6)GalNAc
# How it was run: as §1
# [16] = biological target: Neu5Ac(a2-3)Gal(b1-3)GlcNAc6S
# How it was run: as §1
# [17] = biological target: Neu5Ac(a2-3)Gal(b1-3)[Fuc(a1-4)]GlcNAc
# How it was run: as §1
# [18] = biological target: Neu5Ac(a2-3)Gal(b1-3)[Fuc(a1-4)]GlcNAc(b1-3)Gal(b1-3)[Fuc(a1-4)]GlcNAc
# How it was run: as §1
# [19] = biological target: Neu5Ac(a2-3)Gal(b1-3)[Fuc(a1-4)]GlcNAc(b1-3)Gal(b1-4)[Fuc(a1-3)]GlcNAc
# How it was run: as §1
# [20] = biological target: Neu5Ac(a2-3)Gal(b1-3)[GlcNAc(b1-6)]GalNAc
# How it was run: as §1
# [21] = biological target: Neu5Ac(a2-3)Gal(b1-3)[Neu5Ac(a2-6)]GalNAc
# How it was run: as §1
# [22] = biological target: Neu5Ac(a2-3)Gal(b1-3)[Neu5Ac(a2-6)]GlcNAc(b1-3)[Fuc(a1-3)[Gal(b1-4)]GlcNAc(b1-6)]Gal(b1-4)Glc
# How it was run: as §1
# [23] = biological target: Neu5Ac(a2-3)Gal(b1-3)]Neu5Ac(a2-3)Gal(b1-4)]GlcNAc
# How it was run: as §1
# Neu5Ac(a2-3)Gal(b1-4)Glc = biological target: Neu5Ac(a2-3)Gal(b1-4)Glc
# How it was run: as §1
# [24] = biological target: Neu5Ac(a2-3)Gal(b1-4)GlcNAc
# How it was run: as §1
# [25] = biological target: Neu5Ac(a2-3)Gal(b1-4)GlcNAc(b1-2)Man
# How it was run: as §1
# [26] = biological target: Neu5Ac(a2-3)Gal(b1-4)GlcNAc(b1-2)Man(a1-3)[GlcNAc(b1-4)][Neu5Ac(a2-3)Gal(b1-4)GlcNAc(b1-2)Man(a1-6)]Man(b1-4)GlcNAc(b1-4)GlcNAc
# How it was run: as §1
# [27] = biological target: Neu5Ac(a2-3)Gal(b1-4)GlcNAc(b1-2)Man(a1-3)[Neu5Ac(a2-3)Gal(b1-4)GlcNAc(b1-2)Man(a1-6)]Man(b1-4)GlcNAc(b1-4)GlcNAc
# How it was run: as §1
# [28] = biological target: Neu5Ac(a2-3)Gal(b1-4)GlcNAc(b1-2)Man(a1-3)[Neu5Ac(a2-3)Gal(b1-4)GlcNAc(b1-2)Man(a1-6)]Man(b1-4)GlcNAc(b1-4)[Fuc(a1-6)]GlcNAc
# How it was run: as §1
# [29] = biological target: Neu5Ac(a2-3)Gal(b1-4)GlcNAc(b1-2)Man(a1-3)[Neu5Ac(a2-6)Gal(b1-4)GlcNAc(b1-2)Man(a1-6)]Man(b1-4)GlcNAc(b1-4)GlcNAc
# How it was run: as §1
# [30] = biological target: Neu5Ac(a2-3)Gal(b1-4)GlcNAc(b1-2)[Neu5Ac(a2-3)Gal(b1-4)GlcNAc(b1-4)]Man(a1-3)[GlcNAc(b1-4)][Neu5Ac(a2-3)Gal(b1-4)GlcNAc(b1-2)[Neu5Ac(a2-3)Gal(b1-4)GlcNAc(b1-6)]Man(a1-6)]Man(b1-4)GlcNAc(b1-4)GlcNAc
# How it was run: as §1
# [31] = biological target: Neu5Ac(a2-3)Gal(b1-4)GlcNAc(b1-2)[Neu5Ac(a2-3)Gal(b1-4)GlcNAc(b1-4)]Man(a1-3)[GlcNAc(b1-4)][Neu5Ac(a2-3)Gal(b1-4)GlcNAc(b1-4)Man(a1-6)]Man(b1-4)GlcNAc(b1-4)GlcNAc
# How it was run: as §1
# [32] = biological target: Neu5Ac(a2-3)Gal(b1-4)GlcNAc(b1-2)[Neu5Ac(a2-3)Gal(b1-4)GlcNAc(b1-6)]Man(a1-6)[Neu5Ac(a2-3)Gal(b1-4)GlcNAc(b1-2)Man(a1-3)][GlcNAc(b1-4)]Man(b1-4)GlcNAc(b1-4)GlcNAc
# How it was run: as §1
# [33] = biological target: Neu5Ac(a2-3)Gal(b1-4)GlcNAc(b1-3)Gal
# How it was run: as §1
# [34] = biological target: Neu5Ac(a2-3)Gal(b1-4)GlcNAc(b1-3)Gal(b1-3)GlcNAc
# How it was run: as §1
# [35] = biological target: Neu5Ac(a2-3)Gal(b1-4)GlcNAc(b1-3)Gal(b1-4)GlcNAc
# How it was run: as §1
# [36] = biological target: Neu5Ac(a2-3)Gal(b1-4)GlcNAc(b1-3)Gal(b1-4)GlcNAc(b1-2)Man(a1-3)[Neu5Ac(a2-3)Gal(b1-4)GlcNAc(b1-3)Gal(b1-4)GlcNAc(b1-2)Man(a1-6)]Man(b1-4)GlcNAc(b1-4)GlcNAc
# How it was run: as §1
# [37] = biological target: Neu5Ac(a2-3)Gal(b1-4)GlcNAc(b1-3)Gal(b1-4)GlcNAc(b1-3)Gal(b1-4)GlcNAc
# How it was run: as §1
# [38] = biological target: Neu5Ac(a2-3)Gal(b1-4)GlcNAc(b1-3)Gal(b1-4)GlcNAc(b1-3)Gal(b1-4)GlcNAc(b1-2)Man(a1-3)[Neu5Ac(a2-3)Gal(b1-4)GlcNAc(b1-3)Gal(b1-4)GlcNAc(b1-3)Gal(b1-4)GlcNAc(b1-2)Man(a1-6)]GalNAc
# How it was run: as §1
# [39] = biological target: Neu5Ac(a2-3)Gal(b1-4)GlcNAc(b1-3)Gal(b1-4)GlcNAc(b1-3)GalNAc
# How it was run: as §1
# [40] = biological target: Neu5Ac(a2-3)Gal(b1-4)GlcNAc(b1-3)Gal(b1-4)GlcNAc(b1-3)[Neu5Ac(a2-3)Gal(b1-4)GlcNAc(b1-3)Gal(b1-4)GlcNAc(b1-6)]GalNAc
# How it was run: as §1
# [41] = biological target: Neu5Ac(a2-3)Gal(b1-4)GlcNAc(b1-3)Gal(b1-4)GlcNAc(b1-6)[Gal(b1-3)]GalNAc
# How it was run: as §1
# [42] = biological target: Neu5Ac(a2-3)Gal(b1-4)GlcNAc(b1-3)Gal(b1-4)[Fuc(a1-3)]GlcNAc
# How it was run: as §1
# [43] = biological target: Neu5Ac(a2-3)Gal(b1-4)GlcNAc(b1-3)GalNAc
# How it was run: as §1
binder,measurement,setting,value
B1,glycan array binding signal (z-score),Neu5Ac(a2-3)Gal,-0.249
same,glycan array binding signal (z-score),[1],-0.275
same,glycan array binding signal (z-score),[2],-0.338
same,glycan array binding signal (z-score),[3],-0.24
same,glycan array binding signal (z-score),[4],-0.25
same,glycan array binding signal (z-score),[5],-0.336
same,glycan array binding signal (z-score),[6],-0.278
same,glycan array binding signal (z-score),[7],-0.258
same,glycan array binding signal (z-score),[8],-0.21
same,glycan array binding signal (z-score),[9],-0.233
same,glycan array binding signal (z-score),[10],-0.141
same,glycan array binding signal (z-score),[11],-0.295
same,glycan array binding signal (z-score),[12],-0.286
same,glycan array binding signal (z-score),[13],-0.224
same,glycan array binding signal (z-score),[14],-0.324
same,glycan array binding signal (z-score),[15],-0.229
same,glycan array binding signal (z-score),[16],-0.047
same,glycan array binding signal (z-score),[17],-0.312
same,glycan array binding signal (z-score),[18],-0.196
same,glycan array binding signal (z-score),[19],-0.278
same,glycan array binding signal (z-score),[20],-0.128
same,glycan array binding signal (z-score),[21],-0.203
same,glycan array binding signal (z-score),[22],-0.259
same,glycan array binding signal (z-score),[23],-0.292
same,glycan array binding signal (z-score),Neu5Ac(a2-3)Gal(b1-4)Glc,-0.216
same,glycan array binding signal (z-score),[24],-0.181
same,glycan array binding signal (z-score),[25],-0.22
same,glycan array binding signal (z-score),[26],-0.312
same,glycan array binding signal (z-score),[27],-0.283
same,glycan array binding signal (z-score),[28],4.19
same,glycan array binding signal (z-score),[29],-0.345
same,glycan array binding signal (z-score),[30],-0.174
same,glycan array binding signal (z-score),[31],-0.309
same,glycan array binding signal (z-score),[32],-0.281
same,glycan array binding signal (z-score),[33],-0.283
same,glycan array binding signal (z-score),[34],-0.326
same,glycan array binding signal (z-score),[35],-0.218
same,glycan array binding signal (z-score),[36],-0.322
same,glycan array binding signal (z-score),[37],-0.179
same,glycan array binding signal (z-score),[38],-0.073
same,glycan array binding signal (z-score),[39],-0.282
same,glycan array binding signal (z-score),[40],-0.256
same,glycan array binding signal (z-score),[41],-0.277
same,glycan array binding signal (z-score),[42],-0.257
same,glycan array binding signal (z-score),[43],-0.202
